Reference: PubChem BioAssay AID651820 (National Center for Advancing Translational Sciences (NCATS), 2012)
In all, about 340,000 compounds went through this assay and about 12,000 (3.5%) were called active. Inconclusive means that the source gave no clear call. Such entries were picked first, then a sample of the others. The call rests on the fitted dose curve; in most records, active means well fitted inhibition curve with a large enough effect; inconclusive means small, poorly fitted or top-dose-only effect, or another doubt; inactive means no such curve, though single readings can be large or run the other way. Potencies of inconclusive entries are left out as doubtful fits.

Assay: qHTS Assay for Inhibitors of Hepatitis C Virus (HCV)
Conditions: Huh7.5.1 HCVcc-Cre (HCVcc is cell-culture hepatitis C virus) infection, luciferase reporter, 44 h; activity change, negative = inhibition: at 41.8 µM (top of the series) unless noted
Procedure, shortened: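 Cells (1,000/well) were plated 4 h before compound, then infected with HCVcc-Cre virus (~0.5 moi). After 44 h further culture, infection was read as luciferase luminescence following a 15 min substrate incubation at room temperature.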
On the % scale 0 is the no-effect control and ±100 the full control effect; potency means the concentration at half of the fitted maximal effect; tags describe the fitted curve by direction and shape.

Q: For CCN1CCCc2cc(CN(CCN3CCOCC3)C(=S)Nc3ccccc3OC)ccc21, which “activity change, negative = inhibition” value is on record?
A: Its value is inactive: -15.7%.

Q: With c1ccc(CSc2ncnc3ccccc23)cc1 as the compound, how does the Potency read?
A: Its Potency is inconclusive [inhibitor, single point].

Q: With C=CCn1c(SCC2CCCCO2)nc2sc(CC)cc2c1=O (stereo not given) as the compound, how does the Potency read?
A: The Potency was inconclusive [inhibitor, single point].

Q: For COc1cccc(OCc2cc(/C=N/n3cncn3)ccc2OC)c1, which Potency is on record?
A: Its Potency is inconclusive [inhibitor, full curve, poor fit].

Q: With C=CCn1c(=O)/c(=C/c2cc(OC)c(OC)c(OC)c2)s/c1=C(/C#N)c1nc2ccccc2n1C as the compound, how does the Potency read?
A: Its Potency is inconclusive [inhibitor, full curve].

Q: With COc1ccc(CNc2cc(C)ccc2C)c(OC)c1OC as the compound, how does the Potency read?
A: Its Potency is inconclusive [inhibitor, single point].

Q: With Cc1ccccc1NS(=O)(=O)c1cc(C(=O)NCCSC2CCCCC2)ccc1C as the compound, how does the Potency read?
A: Its Potency is inconclusive [inhibitor, partial curve, poor fit].

Q: Which “activity change, negative = inhibition” value does the source give for COc1ccc(CSc2nnc(C)s2)cc1F here?
A: Its value is inactive: 15.3%.

Q: For COc1cccc(-n2c(SCC(N)=O)nnc2-c2ccncc2)c1, which “activity change, negative = inhibition” value is on record?
A: Its value is inactive: 11.9%.

Q: For CCc1ccc(NC(=S)NC2CC3CCCC(C2)N3Cc2cccs2)cc1 (stereo not given), which Potency is on record?
A: Its Potency is active: 7.94 µM.

Q: For CCN(CC)S(=O)(=O)c1ccc(Cl)c(NC(=O)COc2ccc(OC)cc2[N+](=O)[O-])c1, which “activity change, negative = inhibition” value is on record?
A: The value was inactive: 2.05%.

Q: For CN1CCN(S(=O)(=O)c2csc(C(N)=O)c2)CC1, which “activity change, negative = inhibition” value is on record?
A: Its value is inactive: 10%.

Q: For O=C(C1CCCN(S(=O)(=O)c2ccc([N+](=O)[O-])cc2)C1)N1CCCCC1 (stereo not given), which Potency is on record?
A: The Potency was inconclusive [inhibitor, partial curve].

Q: Which Potency does the source give for COC(=O)c1c(-c2ccc(OC)cc2)sc2cc(OC)c(OC)cc12 here?
A: Its Potency is inconclusive [inhibitor, full curve, poor fit].

Q: With CC1(C)CC(=O)C(CC2=C(O)CC(C)(C)CC2=O)C(=O)C1 as the compound, how does the “activity change, negative = inhibition” value read?
A: The value was inactive: 12.1%.

Q: Which Potency does the source give for COc1nc(Nc2ccc(OC)c(Cl)c2)nc(OC)n1 here?
A: Its Potency is inconclusive [inhibitor, single point].

Q: For CC(C)Nc1ccc(Nc2ccccc2)cc1, which Potency is on record?
A: Its Potency is inconclusive [inhibitor, single point].

Q: For Cc1ccnc(NC(=O)CS(=O)(=O)c2ccccc2)c1, which “activity change, negative = inhibition” value is on record?
A: Its value is inactive: 13%.

Q: For Cc1cccc2nc(Cn3c(=O)n(CCCC(=O)NCc4ccco4)c(=O)c4ccccc43)cc(=O)n12, which Potency is on record?
A: The Potency was inconclusive [inhibitor, single point].

Q: For Cc1ccccc1NS(=O)(=O)c1ccc(C(=O)NNC(=O)c2ccccc2O)cc1, which Potency is on record?
A: The Potency was inconclusive [inhibitor, single point].

Q: With COc1ccc(-n2c(C)cc(C(=O)COC(=O)Cc3n[nH]c(=O)c4ccccc34)c2C)cc1 as the compound, how does the Potency read?
A: The Potency was inconclusive [inhibitor, single point].

Q: With C[C@@H](NCCCn1cnc2c(OCc3ccccc3)ncnc21)c1cccc2ccccc12 as the compound, how does the Potency read?
A: The Potency was inconclusive [inhibitor, full curve, poor fit].

Q: Which Potency does the source give for CCOc1cc(CNC(C)C)c(Cl)cc1OCC(=O)NCCc1ccccc1 here?
A: Its Potency is inconclusive [inhibitor, full curve].

Q: With CCC(=O)NC(=S)Nc1ccc(-c2nc3ccc(C)cc3s2)cc1 as the compound, how does the “activity change, negative = inhibition” value read?
A: The value was inactive: -6.07%.

Q: Which Potency does the source give for O=C(Nc1nccs1)c1ccc(-c2ccc(F)c(Cl)c2)o1 here?
A: The Potency was active: 22.4 µM.

Q: For C[C@H](CO)N1C[C@H](C)[C@@H](CN(C)C(=O)NC2CCCCC2)Oc2c(NC(=O)Nc3ccccc3)cccc2C1=O, which Potency is on record?
A: The Potency was inconclusive [inhibitor, partial curve].

Q: For CCc1ccc(OCCSc2nc3ccccc3n2CCC(=O)O)cc1, which “activity change, negative = inhibition” value is on record?
A: The value was inactive: 15.6%.

Q: Which “activity change, negative = inhibition” value does the source give for C/C(=N\NC(N)=S)c1ccc(Cl)s1 here?
A: Its value is inactive: -10.4%.

Q: For O=C(NCCN1C(=O)S/C(=C\c2ccccc2)C1=O)c1cc(S(=O)(=O)N2CCOCC2)c(Cl)cc1Cl, which Potency is on record?
A: The Potency was inconclusive [inhibitor, single point].

Q: Which Potency does the source give for COC(=O)c1cc(OC)c(OC)cc1NC(=O)c1ccc(OC)c(OC)c1 here?
A: Its Potency is inconclusive [inhibitor, full curve, poor fit].

Q: Which “activity change, negative = inhibition” value does the source give for CC1(C)CC(NC(=O)c2cccc(Cl)c2)CC(C)(C)N1 here?
A: Its value is inactive: 1.25%.

Q: With FC(F)(F)c1cc(-c2ccccc2)nc(NCC2CCCO2)n1 (stereo not given) as the compound, how does the Potency read?
A: The Potency was inconclusive [inhibitor, partial curve].

Q: With CC1(c2nnc(-c3cccc(Cl)c3)o2)CC(c2ccc(F)cc2)=NO1 (stereo not given) as the compound, how does the “activity change, negative = inhibition” value read?
A: The value was inactive: -12.8%.

Q: For O=C(CSc1nc2ccccc2c(=O)n1-c1ccccc1Cl)Nc1cccc(S(=O)(=O)N2CCOCC2)c1, which Potency is on record?
A: Its Potency is inconclusive [inhibitor, partial curve].

Q: Which Potency does the source give for O=C1C=C(Nc2ccc(O)cc2)CC(c2ccco2)C1 (stereo not given) here?
A: The Potency was inconclusive [inhibitor, single point].

Q: For COc1ccc(C(=O)Nc2ccc(N3CCN(C(=O)c4ccccc4)CC3)cc2)cc1[N+](=O)[O-], which Potency is on record?
A: The Potency was inconclusive [inhibitor, single point].

Q: With Cc1cccc(OCCCN2CCCCCC2)c1 as the compound, how does the Potency read?
A: Its Potency is active: 31.6 µM.

Q: Which Potency does the source give for COC(=O)c1ccc(CN2C(=O)C(C)N(C(=O)c3c(F)cccc3F)c3ccccc32)cc1 (stereo not given) here?
A: The Potency was inconclusive [inhibitor, partial curve].

Q: With COc1cc2c(cc1NC(=O)CSc1ccccn1)oc1ccccc12 as the compound, how does the Potency read?
A: The Potency was inconclusive [inhibitor, single point].

Q: Which “activity change, negative = inhibition” value does the source give for CCc1ccc(OCCCC(=O)NCc2ccco2)cc1 here?
A: Its value is inactive: 9.55%.

Q: With CCCCn1c(N)c(N(CC(C)C)C(=O)CCNC(=O)c2ccccc2Cl)c(=O)[nH]c1=O as the compound, how does the Potency read?
A: Its Potency is inconclusive [inhibitor, single point].

Q: For Cc1ccc(NC(=S)N=Nc2c(O)n(C)c3ccc(S(=O)(=O)N4CCOCC4)cc23)cc1, which Potency is on record?
A: Its Potency is inconclusive [inhibitor, full curve].

Q: With CCOc1ccc(CNc2ccc3c(c2)ncn3C(C)(C)C)cc1 as the compound, how does the Potency read?
A: Its Potency is inconclusive [inhibitor, single point].

Q: For O=C(Nc1ccc2c(c1)OCCO2)C1CCN(S(=O)(=O)c2ccc(Br)s2)CC1, which Potency is on record?
A: The Potency was inconclusive [inhibitor, single point].

Q: For Cc1ccc(O)c(C(=O)CC(=O)c2ccc(C(C)(C)C)cc2)c1, which Potency is on record?
A: Its Potency is inconclusive [inhibitor, single point].

Q: With COc1ccc(/C=N/NC(=O)c2ccc(COc3cccc4cccnc34)cc2)cc1O as the compound, how does the “activity change, negative = inhibition” value read?
A: Its value is inactive: -12.7%.

Q: For Cc1cccc(NC(=O)CN2CCN(C(=O)CNC(=O)Cc3cccc4ccccc34)CC2)c1C, which Potency is on record?
A: The Potency was inconclusive [inhibitor, single point].

Q: With O=C(NCCN1C(=O)S/C(=C\c2ccc(Cl)cc2Cl)C1=O)C1=COCCO1 as the compound, how does the Potency read?
A: Its Potency is inconclusive [inhibitor, single point].

Q: Which Potency does the source give for Cc1cc(OCCNCCO)cc(C)c1Cl here?
A: The Potency was inconclusive [inhibitor, single point].

Q: For COc1cc2c(cc1OC)CN(C(=O)c1cc(S(=O)(=O)N3CCCCC3)ccc1Cl)CC2, which Potency is on record?
A: Its Potency is inconclusive [inhibitor, single point].

Q: Which Potency does the source give for COC(=O)C1=C(c2ccc(F)cc2OCc2ccccc2)C[C@@H]2CC[C@H]1N2C(=O)NC1CCN(Cc2ccccc2)CC1 here?
A: Its Potency is inconclusive [inhibitor, single point].

Q: For CCOC(=O)c1c(NC(=O)CSc2nnc(CNC(=O)c3ccco3)n2C)sc2c1CCC2, which Potency is on record?
A: Its Potency is inconclusive [inhibitor, partial curve].

Q: For COc1ccccc1/C=C/C=N/N1CCN(Cc2ccc(Cl)cc2)CC1, which Potency is on record?
A: Its Potency is inconclusive [inhibitor, single point].

Q: For CCc1cc2c(NCc3ccccc3)nc(C)nc2s1, which Potency is on record?
A: The Potency was active: 7.94 µM.

Q: For C=CCn1c(O)c(N=NC(=O)CNC(=O)c2ccco2)c2ccccc21, which “activity change, negative = inhibition” value is on record?
A: Its value is inactive: -1.21%.

Q: Which Potency does the source give for Cc1cc(C(=O)Cn2nnc3ccccc3c2=O)c(C)n1-c1ccccc1F here?
A: The Potency was inconclusive [inhibitor, full curve].

Q: Which “activity change, negative = inhibition” value does the source give for CC1CC(O)(CC(O)(c2ccccc2)c2ccccc2)C(C)CN1C (stereo not given) here?
A: Its value is inactive: -28.9%.

Q: For CCC(=O)Nc1ccc(S(=O)(=O)Nc2c(NC)c3ccccc3oc2=O)cc1, which Potency is on record?
A: Its Potency is inconclusive [inhibitor, single point].

Q: For CCOc1cc(CNC2CCCC2)cc(Cl)c1OCc1ccc(F)cc1, which Potency is on record?
A: The Potency was active: 3.98 µM.

Q: For COc1ccc(Cl)cc1NS(=O)(=O)c1cccc(C(=O)NCC(c2ccco2)N(C)C)c1 (stereo not given), which Potency is on record?
A: The Potency was inconclusive [inhibitor, single point].

Q: Which Potency does the source give for O=C(COc1ccc(Br)cc1)Nc1cc(S(=O)(=O)N2CCCCC2)ccc1N1CCCCC1 here?
A: Its Potency is inconclusive [inhibitor, partial curve].

Q: With CN(CC(=O)Nc1c(Cl)cccc1Cl)C(=O)c1ccccc1SCC(=O)N1CCCC1 as the compound, how does the “activity change, negative = inhibition” value read?
A: Its value is inactive: 10.9%.

Q: With COc1ccccc1C(=O)NCCC(=O)N1CCN(c2ccccc2Cl)CC1 as the compound, how does the “activity change, negative = inhibition” value read?
A: The value was inactive: 22.4%.

Q: For COC(=O)c1ccc2c(=O)[nH]c(CCl)nc2c1, which Potency is on record?
A: Its Potency is inconclusive [inhibitor, single point].

Q: With COc1ccc(NC(=O)O/N=C/c2c(C)nn(C(C)(C)C)c2C)cc1 as the compound, how does the “activity change, negative = inhibition” value read?
A: The value was inactive: -27%.

Q: For Cc1[nH]c(=O)[nH]c1C(=O)CCCCC(=O)O, which “activity change, negative = inhibition” value is on record?
A: The value was inactive: 13.5%.

Q: For O=C(c1cnc(Cl)c(Cl)c1)N1CCN(S(=O)(=O)c2ccc3ccccc3c2)CC1, which Potency is on record?
A: Its Potency is active: 11.2 µM.

Q: For Cc1cc(C)c2c(N)c(C(=O)c3cccc(Cl)c3)sc2n1, which Potency is on record?
A: The Potency was inconclusive [inhibitor, partial curve].

Q: With CCOC(=O)C1=C(CCc2ccccc2)NC(=O)NC1c1cccc([N+](=O)[O-])c1 (stereo not given) as the compound, how does the Potency read?
A: The Potency was inconclusive [inhibitor, full curve].

Q: For CSc1nsc(SCC(=O)Nc2ccccn2)n1, which “activity change, negative = inhibition” value is on record?
A: The value was inactive: 2.84%.
